# Experimental data as given in PubChem BioAssay AID488969 (Vanderbilt High Throughput Screening Facility, 2010).
# Whole data set: some 110,000 compounds, median “z-score” near -0.1, cut for the highest 2% near 2. The list shows a part of the results. Activity calls are given as the source filed them.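 How the source made its calls: active means z-score in the third read window above 3 or below -3; inactive means the rest.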
# Biological target: Metabotropic glutamate receptor 8 (Rattus norvegicus) (UniProt P70579)
# Chain of UniProt P70579 (P70579 whole entry, looked up): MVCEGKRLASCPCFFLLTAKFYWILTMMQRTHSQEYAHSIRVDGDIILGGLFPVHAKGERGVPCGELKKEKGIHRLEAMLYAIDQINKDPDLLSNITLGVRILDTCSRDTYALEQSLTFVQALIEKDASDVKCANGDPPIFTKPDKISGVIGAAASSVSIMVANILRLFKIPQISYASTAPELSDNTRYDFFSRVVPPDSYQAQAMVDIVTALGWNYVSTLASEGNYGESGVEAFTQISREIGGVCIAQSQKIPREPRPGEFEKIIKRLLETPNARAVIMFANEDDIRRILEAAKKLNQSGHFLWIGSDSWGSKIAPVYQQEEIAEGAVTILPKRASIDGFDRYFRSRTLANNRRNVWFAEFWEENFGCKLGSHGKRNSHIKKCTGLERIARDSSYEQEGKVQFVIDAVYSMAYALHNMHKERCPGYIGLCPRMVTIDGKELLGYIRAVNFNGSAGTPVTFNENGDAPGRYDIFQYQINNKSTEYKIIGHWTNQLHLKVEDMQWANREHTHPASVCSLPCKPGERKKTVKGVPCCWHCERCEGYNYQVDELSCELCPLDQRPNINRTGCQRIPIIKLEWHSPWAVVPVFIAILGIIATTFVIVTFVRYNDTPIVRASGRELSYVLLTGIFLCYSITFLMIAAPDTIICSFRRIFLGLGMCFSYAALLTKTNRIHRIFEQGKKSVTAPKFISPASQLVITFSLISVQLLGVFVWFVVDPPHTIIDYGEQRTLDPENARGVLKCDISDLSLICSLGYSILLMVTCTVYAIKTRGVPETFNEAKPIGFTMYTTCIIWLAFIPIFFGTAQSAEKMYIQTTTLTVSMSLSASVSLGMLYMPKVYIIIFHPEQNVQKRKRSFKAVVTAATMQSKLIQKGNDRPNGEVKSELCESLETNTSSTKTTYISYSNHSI
# Experiment: rat mGluR8 modulators via GIRK flux, primary screen, cell-based, thallium flux, HTS (AID 488969)
# Details: HEK293 rat mGluR8, GIRK (G protein-gated inwardly rectifying potassium channel) thallium flux, FluoZin2; at 10 µM; stronger effect = higher value; submaximal glutamate (EC20) added with thallium
row,SMILES,z-score
1,O=C(NC1CCCCC1)N1CCc2[nH]c3ccccc3c2C1,-0.365
2,CCC(=O)Nc1ccc(OC)cc1OC,0.733
3,Cc1ccc(CNC(=O)Cn2cncn2)cc1,0.00306
4,CCOC(=O)CSc1nc(-c2ccccc2)nc2c1oc1ccccc12,-0.0461
5,CCn1cc(C(=O)OCC(=O)OC2CC(C)CCC2C(C)C)c(=O)c2ccc(C)nc21 (stereo unspecified),-1.11
6,O=C(CCC(=O)c1cccs1)Nc1nnc(C2CC2)s1,0.089
7,Cc1csc(NC(=O)c2cc(C)oc2C)n1,-0.285
8,CCC(Sc1nc(=O)cc(N)n1CCc1ccccc1)C(=O)Nc1cc(C)on1 (stereo unspecified),0.678
9,O=C(CCS(=O)(=O)c1cccs1)NC1CCCCCC1,-1.37
10,O=C(Nc1nnc(C2CCCO2)s1)c1cccs1 (stereo unspecified),0.541
11,COc1cc2c(C(=O)O)c(C)n(CC(C)C)c2c2ccccc12,-0.526
12,CCOC(=O)c1sc(NC(=S)NC(=O)C23CC4CC(CC(C4)C2)C3)cc1C,-0.261
13,c1ccc(CC2=NCCN2)cc1,-0.0775
14,COc1ccc(-c2cnc(NCc3cc4c(cc3[N+](=O)[O-])OCO4)n2C)cc1,-0.0037
15,COc1ccc(-c2nnc(SCC(=O)Nc3ccccc3OC)o2)cc1,0.113
16,c1ccc(-c2cn3c(n2)-c2ccccc2C3)cc1,-0.334
17,Cc1ccc(C2CC2C(=O)NNC(=S)Nc2cccc(Cl)c2)cc1 (stereo unspecified),active: 5.51
18,O=C(OC1CCN(c2ncc(C(F)(F)F)cc2Cl)CC1)c1ccccc1,-0.0942
19,O=C(CSc1nnc(COc2cccc3ccccc23)o1)N1CCN(C(=O)c2ccco2)CC1,-0.249

row,SMILES,z-score
1,Cc1cccc(Nc2nc(-c3cccs3)cs2)n1,-0.368
2,Cc1nnc(SCC(=O)c2ccccc2)n1Cc1ccccc1,-0.213
3,CSc1nc(-c2ccco2)nn1C(=O)CCc1ccccc1,0.0998
4,CCCc1cc(C(=O)Nc2cccc(C(C)=O)c2)no1,0.29
5,CS(=O)(=O)Nc1ccc(C(=O)NCCSC2CCCCC2)cc1,-0.246
6,CS(=O)(=O)N(CC(=O)N1CCN(c2cccc(Cl)c2)CC1)c1cccc(F)c1,-1.27
7,CC(C)Oc1ccc(C(=O)NCc2cccs2)cc1,0.0965
8,O=C(CSc1nnc(SCc2ccc(Cl)cc2)s1)N1CCN(C(=O)c2ccco2)CC1,-0.43
9,NC(=O)C1CCN(S(=O)(=O)c2cccc(S(=O)(=O)N3CCCCC3)c2)CC1,0.0693
10,O=S(=O)(N/N=C\C=C\c1ccccc1)c1ccccc1,-0.137
11,CCOc1ccc2ncc(S(=O)(=O)c3ccccc3)c(N3CCN(c4ccc(OC)cc4)CC3)c2c1,-0.351
12,COc1ccc(-n2c(SCC(=O)NC3CCCCC3)nc3ccsc3c2=O)cc1,-0.145
13,Clc1ccc(OCCSCc2nc3ccccc3[nH]2)cc1,-0.536
14,COc1ccc2nc(N3C(=O)/C(=C/c4ccccc4)NC3=S)sc2c1,active: 11.9
15,Cc1ccccc1CSc1nnc(NC(=O)Cc2cccs2)s1,0.0186
16,COc1ccc(C2C(C(=O)N3CCCCC3)CCC(=O)N2c2cc(OC)c(OC)c(OC)c2)cc1 (stereo unspecified),0.48
17,COc1cccc(C(=O)N/N=C/c2ccc(OC3CSC3)cc2)c1,-0.141
18,Cc1ccccc1Oc1ccc(S(=O)(=O)NCCC(=O)O)cc1,0.0137
19,Nc1cc(-c2ccccc2)nn1S(=O)(=O)c1ccc(F)cc1,-0.299

row,SMILES,z-score
1,Cc1ccc(C2OCC3(CO2)COC(c2ccc(C)cc2)OC3)cc1 (stereo unspecified),-0.306
2,COc1cccc(CN(C)CC(=O)NNC(=O)c2ccc(Cl)cc2)c1,-0.252
3,Cc1cccc(NC(=O)CCS(=O)(=O)c2cccc3nsnc23)c1C,0.158
4,O=C(CC1COc2ccccc2O1)Nc1ccccn1 (stereo unspecified),-0.348
5,Cc1cc(Nc2ccccc2)nc(-c2ccccc2O)n1,-0.249
6,CCc1ccc(NCCC(=O)c2ccc(Br)cc2)cc1,-0.166
7,CCN1CCN(C(=S)c2ccc(Br)cc2)CC1,-0.0963
8,CCOC(=O)c1c(C)[nH]c(C(=O)OCCOc2ccc(Cl)cc2)c1C,-0.198
9,COc1cccc(OCc2nnc(SCC(=O)OC3CCCCC3)n2C)c1,-0.824
10,O=C(C1CCCN(Cc2ccccc2)C1)N1CCCCC1 (stereo unspecified),0.122
11,CCOC(=O)C1=C(O)/C(=C/c2cc(OC)c(OC)c(OC)c2)SC1=Nc1ccc(OC)cc1,-0.337
12,COc1ccc(OC)c(NC(=O)C(=O)N/N=C/c2ccccc2[N+](=O)[O-])c1,-0.219
13,Cc1nn(-c2ccccc2)c(Cl)c1C(=O)N(C)c1nc(-c2ccc(F)cc2)cs1,-0.426
14,Cc1ccc(CN=c2c([N+](=O)[O-])nn(-c3ccc4c(c3)OCCO4)n2O)cc1,-0.236
15,O=C(O)CCc1ccc(-c2ccccc2)n1CC(=O)O,1.44
16,CCOC(=O)CN1C=C(c2ccc3ccccc3n2)C(C[N+](=O)[O-])c2ccccc21 (stereo unspecified),0.302
17,Cc1cccc(NC(=O)c2cc(N3CCOCC3)nc3ccccc23)c1,0.0144
18,CCOC(=O)COc1c(OC)cc(Cl)cc1C1Nc2ccccc2C(=O)N1c1cccc(C)c1 (stereo unspecified),0.18
